The other results are listed elsewhere or left out.
Tests used:
Assay in all cases: glycan array binding signal (z-score within array); higher = stronger binding
Settings in all cases: glycan notation: IUPAC condensed, linker removed
[1] = target: Gal(b1-4)GlcNAc(b1-2)Man(a1-6)[Man(a1-3)]Man(b1-4)GlcNAc(b1-4)GlcNAc
Procedure, shortened: (§1)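 Glycan array data came from 3228 arrays in the Consortium for Functional Glycomics database, and only arrays with an available protein sequence were kept. Glycan names were put into IUPAC-condensed notation, and columns mapping to the same glycan were averaged. The binding signal is a within-array Z-score, averaged across arrays of one protein sequence run at different concentrations or buffers and across linkers. A negative Z-score can be read as non-binding.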

[2] = target: Gal(b1-4)GlcNAc(b1-2)[Gal(b1-4)GlcNAc(b1-4)]Man(a1-3)[Gal(b1-4)GlcNAc(b1-2)Man(a1-6)]Man(b1-4)GlcNAc(b1-4)GlcNAc
Procedure, shortened: as §1

[3] = target: Gal(b1-4)GlcNAc(b1-2)[Gal(b1-4)GlcNAc(b1-4)]Man(a1-3)[Gal(b1-4)GlcNAc(b1-2)[Gal(b1-4)GlcNAc(b1-6)]Man(a1-6)]Man(b1-4)GlcNAc(b1-4)GlcNAc
Procedure, shortened: as §1

[4] = target: Gal(b1-4)GlcNAc(b1-2)[Gal(b1-4)GlcNAc(b1-4)]Man(a1-3)[GlcNAc(b1-4)][Gal(b1-4)GlcNAc(b1-2)Man(a1-6)]Man(b1-4)GlcNAc(b1-4)GlcNAc
Procedure, shortened: as §1

[5] = target: Gal(b1-4)GlcNAc(b1-2)[Gal(b1-4)GlcNAc(b1-4)]Man(a1-3)[GlcNAc(b1-4)][Gal(b1-4)GlcNAc(b1-2)[Gal(b1-4)GlcNAc(b1-6)]Man(a1-6)]Man(b1-4)GlcNAc(b1-4)GlcNAc
Procedure, shortened: as §1

[6] = target: Gal(b1-4)GlcNAc(b1-2)[Gal(b1-4)GlcNAc(b1-6)]Man(a1-6)[Gal(b1-4)GlcNAc(b1-2)Man(a1-3)]Man(b1-4)GlcNAc(b1-4)GlcNAc
Procedure, shortened: as §1

[7] = target: Gal(b1-4)GlcNAc(b1-2)[Gal(b1-4)GlcNAc(b1-6)]Man(a1-6)[Gal(b1-4)GlcNAc(b1-2)Man(a1-3)]Man(b1-4)GlcNAc(b1-4)[Fuc(a1-6)]GlcNAc
Procedure, shortened: as §1

[8] = target: Gal(b1-4)GlcNAc(b1-2)[Gal(b1-4)GlcNAc(b1-6)]Man(a1-6)[GlcNAc(b1-4)][Gal(b1-4)GlcNAc(b1-2)Man(a1-3)]Man(b1-4)GlcNAc(b1-4)GlcNAc
Procedure, shortened: as §1

[9] = target: Gal(b1-4)GlcNAc(b1-2)[Gal(b1-4)GlcNAc(b1-6)]Man(a1-6)[GlcNAc(b1-4)][Gal(b1-4)GlcNAc(b1-2)[Gal(b1-4)GlcNAc(b1-4)]Man(a1-3)]Man(b1-4)GlcNAc(b1-4)[Fuc(a1-6)]GlcNAc
Procedure, shortened: as §1

[10] = target: Gal(b1-4)GlcNAc(b1-3)Gal(b1-3)GalNAc
Procedure, shortened: as §1

[11] = target: Gal(b1-4)GlcNAc(b1-3)Gal(b1-3)GlcNAc
Procedure, shortened: as §1

[12] = target: Gal(b1-4)GlcNAc(b1-3)Gal(b1-4)Glc
Procedure, shortened: as §1

[13] = target: Gal(b1-4)GlcNAc(b1-3)Gal(b1-4)GlcNAc
Procedure, shortened: as §1

[14] = target: Gal(b1-4)GlcNAc(b1-3)Gal(b1-4)GlcNAc(b1-2)Man(a1-3)[Gal(b1-4)GlcNAc(b1-3)Gal(b1-4)GlcNAc(b1-2)Man(a1-6)]Man(b1-4)GlcNAc(b1-4)GlcNAc
Procedure, shortened: as §1

[15] = target: Gal(b1-4)GlcNAc(b1-3)Gal(b1-4)GlcNAc(b1-2)Man(a1-3)[Gal(b1-4)GlcNAc(b1-3)Gal(b1-4)GlcNAc(b1-2)Man(a1-6)]Man(b1-4)GlcNAc(b1-4)[Fuc(a1-6)]GlcNAc
Procedure, shortened: as §1

[16] = target: Gal(b1-4)GlcNAc(b1-3)Gal(b1-4)GlcNAc(b1-2)[Gal(b1-4)GlcNAc(b1-3)Gal(b1-4)GlcNAc(b1-6)]Man(a1-6)[Gal(b1-4)GlcNAc(b1-3)Gal(b1-4)GlcNAc(b1-2)Man(a1-3)]Man(b1-4)GlcNAc(b1-4)GlcNAc
Procedure, shortened: as §1

[17] = target: Gal(b1-4)GlcNAc(b1-3)Gal(b1-4)GlcNAc(b1-2)[Gal(b1-4)GlcNAc(b1-3)Gal(b1-4)GlcNAc(b1-6)]Man(a1-6)[Gal(b1-4)GlcNAc(b1-3)Gal(b1-4)GlcNAc(b1-2)Man(a1-3)]Man(b1-4)GlcNAc(b1-4)[Fuc(a1-6)]GlcNAc
Procedure, shortened: as §1

[18] = target: Gal(b1-4)GlcNAc(b1-3)Gal(b1-4)GlcNAc(b1-3)Gal(b1-4)GlcNAc
Procedure, shortened: as §1

[19] = target: Gal(b1-4)GlcNAc(b1-3)Gal(b1-4)GlcNAc(b1-3)Gal(b1-4)GlcNAc(b1-2)Man(a1-3)[Gal(b1-4)GlcNAc(b1-3)Gal(b1-4)GlcNAc(b1-3)Gal(b1-4)GlcNAc(b1-2)Man(a1-6)]Man(b1-4)GlcNAc(b1-4)GlcNAc
Procedure, shortened: as §1

[20] = target: Gal(b1-4)GlcNAc(b1-3)Gal(b1-4)GlcNAc(b1-3)Gal(b1-4)GlcNAc(b1-2)Man(a1-3)[Gal(b1-4)GlcNAc(b1-3)Gal(b1-4)GlcNAc(b1-3)Gal(b1-4)GlcNAc(b1-2)Man(a1-6)]Man(b1-4)GlcNAc(b1-4)[Fuc(a1-6)]GlcNAc
Procedure, shortened: as §1

[21] = target: Gal(b1-4)GlcNAc(b1-3)Gal(b1-4)GlcNAc(b1-3)Gal(b1-4)GlcNAc(b1-2)[Gal(b1-4)GlcNAc(b1-3)Gal(b1-4)GlcNAc(b1-3)Gal(b1-4)GlcNAc(b1-6)]Man(a1-6)[Gal(b1-4)GlcNAc(b1-3)Gal(b1-4)GlcNAc(b1-3)Gal(b1-4)GlcNAc(b1-2)Man(a1-3)]Man(b1-4)GlcNAc(b1-4)[Fuc(a1-6)]GlcNAc
Procedure, shortened: as §1

[22] = target: Gal(b1-4)GlcNAc(b1-3)Gal(b1-4)GlcNAc(b1-3)Gal(b1-4)GlcNAc(b1-3)Gal(b1-4)GlcNAc(b1-2)Man(a1-3)[Gal(b1-4)GlcNAc(b1-3)Gal(b1-4)GlcNAc(b1-3)Gal(b1-4)GlcNAc(b1-3)Gal(b1-4)GlcNAc(b1-2)Man(a1-6)]Man(b1-4)GlcNAc(b1-4)GlcNAc
Procedure, shortened: as §1

B1: HPA (Helix pomatia), Q2F1K8 (protein)
chain: MQAFYSGLLLLCVVAFAAAQRVQSGKIDCGNDAGWAKVPSDDPGRDNTRELAKNITFASPYCRPPVVLLSITQLDVEQSQNLRVIARLYSVSPTGFKASCYTWHNTKVYSMSISWISIENY
- glycan array binding signal (z-score) [1]: -0.078
- glycan array binding signal (z-score) [2]: -0.109
- glycan array binding signal (z-score) [3]: -0.277
- glycan array binding signal (z-score) [4]: -0.253
- glycan array binding signal (z-score) [5]: -0.211
- glycan array binding signal (z-score) [6]: -0.297
- glycan array binding signal (z-score) [7]: -0.136
- glycan array binding signal (z-score) [8]: -0.347
- glycan array binding signal (z-score) [9]: -0.325
- glycan array binding signal (z-score) [10]: -0.293
- glycan array binding signal (z-score) [11]: -0.058
- glycan array binding signal (z-score) [12]: -0.129
- glycan array binding signal (z-score) [13]: -0.256
- glycan array binding signal (z-score) [14]: 0.695
- glycan array binding signal (z-score) [15]: 0.081
- glycan array binding signal (z-score) [16]: -0.068
- glycan array binding signal (z-score) [17]: 0.032
- glycan array binding signal (z-score) [18]: -0.2
- glycan array binding signal (z-score) [19]: 1.39
- glycan array binding signal (z-score) [20]: 0.137
- glycan array binding signal (z-score) [21]: 0.257
- glycan array binding signal (z-score) [22]: -0.082
